In PubChem BioAssay AID651812 (National Center for Advancing Translational Sciences (NCATS), 2012):
About 650 (31%) of roughly 2,100 compounds were called active. This list was built around the results that the source calls inconclusive (neither active nor inactive); the mix of calls is not that of the screen. Calls come from the whole dose curve; as a rule, active = well fitted inhibition curve with a large enough effect; inconclusive = small, poorly fitted or top-dose-only effect; inactive = flat fitted curve, though single readings scatter. Potencies of inconclusive entries are left out as doubtful fits.

Assay: qHTS for inhibitors of Vif-A3G interactions: Cherry picks; note: nearly all actives have a fitted effect of over 80% in size; for activity, negative = fluorescence increase: % of control where 0% means no effect
Conditions: HeLa A3G-eYFP + Vif (tagged APOBEC3G with the HIV-1 protein that degrades it), 24 h; Potency: eYFP fluorescence increase; series mostly up to 46.1 µM; activity, negative = fluorescence increase: at the top concentration
From the text: The recent discovery and characterization of host restriction factors, which provide a potent defense to invading retroviruses, has provided new targets for antiviral drug development. APOBEC3G (A3G) and APOBEC3F (A3F) are potent cytidine deaminases that block HIV-1 replication; HIV-1 expresses the Vif protein, which counteracts A3G and A3F by binding to them and inducing their proteasomal degradation. The Vif-A3G and Vif-A3F interactions provide two potential targets for development of small molecules which can interfere with the ability of Vif to degrade A3G or A3F. […] To identify inhibitors that can interfere with Vif mediated degradation of A3G and A3F, we have developed Hela cell lines that stably express A3G or A3F tagged with eYFP at the C-terminal end (A3G-eYFP or A3F-eYFP, respectively) and Vif. In the absence of an inhibitor, Vif induces degradation of A3G-eYFP and A3F-eYFP, and the cells are not fluorescent. In the presence of an inhibitor, it is expected that Vif will be unable to degrade A3G-eYFP and/or A3F-eYFP, resulting in an increase in yellow fluorescence. In this assay, Vif A3G was screened against the cherry picks ordered from the MLSMR. NIH Chemical Genomics Center [NCGC] NIH Molecular Libraries Probe Centers Network [MLPCN] MLPCN Grant: MH093245 Assay Submitter (PI): Vinay Pathak, National Cancer Institute
A3G-Vif cells were harvested from T225 flask and resuspended in phenol free OPTI-MEM medium with 5% FBS. Then 5 uL of 140,000 cells/mL resuspended cells was dispensed into each well of low base Aurora COC 1,536-well plates (black walled, clear bottom) using a Multidrop Combi dispenser. After overnight culture at 37 deg C with 5% CO2, a total of 23 nL of compounds at 5 selected concentrations from the NPC or positive control (2 mM stock of MG132) in DMSO was transferred to each well of the assay plate using a pintool (Kalypsys, San Diego, CA), and the plates were further incubated at 37 deg C with 5% CO2 for 24 hours. After that, the plates were measured on Acumen Explorer (TTP Lab Tech). The fluorescence was detected by 488 nm/Ex and […].
Potency is the fitted concentration of half-maximal effect; tags give direction and shape of the fitted curve.

| SMILES | Potency | activity, negative = fluorescence increase |
| --- | --- | --- |
| O=c1[nH]c(=O)n(Cc2ccccc2Cl)c(O)c1/C=C1/C=CC=N1 | inconclusive [inhibitor, partial curve, poor fit] | – |
| CCCCn1c(O)c(C(=O)/C=C/c2c[nH]c3ccccc23)c(=O)[nH]c1=O | active: 15.8 µM | – |
| ClCCN(CCCl)c1ccc(C=Cc2ccncn2)cc1 | inconclusive [inhibitor, single point] | – |
| CN1/C(=C\C=C2C(=O)NC(=O)NC2=O)C(C)(C)c2ccccc21 | active: 4.61 µM | – |
| O=C(Cc1ccccc1)c1ccccn1 | inconclusive [inhibitor, single point] | – |
| Cc1nn(Cc2ccccc2)c(C)c1C(=O)OCC(=O)Nc1ccccc1SCC#N | inconclusive [inhibitor, single point] | – |
| CCCCCn1c(NC(=O)c2ccco2)c(C(=O)OCC)c2nc3ccccc3nc21 | inconclusive [inhibitor, single point] | – |
| CCN1C(=O)C(=C/C=C/c2ccco2)C(=O)N(CC)C1=S | inconclusive [inhibitor, single point] | – |
| Cc1ccc(/C=C2/C(=O)NC(=O)N(CCc3ccc(F)cc3)C2=O)s1 | inconclusive [inhibitor, single point] | – |
| CCN(CC)c1ccc(C=C2C(=O)N(C)C(=S)N(C)C2=O)o1 | active: 14 µM | – |
| CCCCn1c(O)c(/C=C2/C=CC=N2)c(=O)[nH]c1=O | inconclusive [inhibitor, single point] | – |
| O=C1NC(=O)N(c2ccc3c(c2)OCO3)C(=O)/C1=C/c1ccc(N2CCCCC2)o1 | active: 23.1 µM | – |
| COc1cc(/C=C/C(=O)c2c(O)n(CCc3ccccc3)c(=O)[nH]c2=O)ccc1O | inconclusive [inhibitor, single point] | – |
| CN1C(=O)C(=Cc2ccc(N3CCOCC3)o2)C(=O)N(C)C1=O | active: 23.1 µM | – |
| O=C1NC(=O)N(Cc2ccc(F)cc2)C(=O)/C1=C\C=C\c1ccco1 | inconclusive [inhibitor, partial curve] | – |
| COc1ccc(-n2cnc3cc(C(=O)N4CCC5(CC4)OCCO5)ccc32)cc1 | – | inactive: 3.42% [at 36.9 µM] |

| SMILES | Potency | activity, negative = fluorescence increase |
| --- | --- | --- |
| O=c1[nH]c(O)c(/C=C2\C=Nc3ccc(OCc4ccccc4)cc32)c(=O)[nH]1 | inconclusive [inhibitor, single point] | – |
| CC(C)N1C(=O)/C(=C/C=C/c2ccco2)C(=O)N(Cc2ccco2)C1=O | inconclusive [inhibitor, single point] | – |
| CCN(CC)c1ccc(/C=C/[N+](=O)[O-])cc1 | inconclusive [inhibitor, single point] | – |
| O=C1NC(=S)SC1=Cc1ccc(N(CCCl)CCCl)cc1 | active: 15.8 µM | – |
| CCCCn1c(N)c(N(CC(C)C)C(=O)c2cc(Br)c(Br)s2)c(=O)[nH]c1=O | inconclusive [inhibitor, single point] | – |
| O=C1NC(=O)N(Cc2ccc(F)cc2)C(=O)/C1=C\c1ccoc1 | inconclusive [inhibitor, single point] | – |
| CCN1C(=O)/C(=C/c2ccc(N(CC)CC)cc2OC)C(=O)NC1=S | – | inactive: -8.27% |
| Cc1ccc(N2C(=O)NC(=O)/C(=C\C=C\c3ccco3)C2=O)cc1C | inconclusive [inhibitor, partial curve] | – |
| COc1ccc(/C=C2\Oc3cc(OC(=O)N4CCOCC4)ccc3C2=O)c(OC)c1 | inconclusive [inhibitor, single point] | – |
| Cn1cccc1/C=C1\C(=O)NC(=O)N(Cc2ccccc2Cl)C1=O | inconclusive [inhibitor, partial curve] | – |
| Cc1cccc(-n2c(/C=C/c3c(C)[nH]c4ccccc34)nc3ccccc3c2=O)c1 | active: 16.4 µM | – |
| Cc1ccccc1-n1c(O)c(/C=C/C=Nc2ccccc2)c(=O)[nH]c1=O | inconclusive [inhibitor, single point] | – |
| O=c1c2ccccc2nc(/C=C/c2ccc(F)cc2)n1-c1ccccc1O | inconclusive [inhibitor, single point] | – |
| COC(=O)C1=C(C)N(Cc2ccco2)C(=O)/C1=C\c1ccc(N(C)C)cc1 | active: 13 µM | – |
| COc1ccccc1-n1c(/C=C/c2ccc(O)cc2)nc2ccccc2c1=O | inconclusive [inhibitor, single point] | – |
| CC(C)c1ccc(N2C(=O)NC(=O)/C(=C\C=C\c3ccco3)C2=O)cc1 | active: 17.7 µM | – |
